Measurements as given in patent US20060052435A1, “Selective dopamin d3 receptor agonists for the treatment of sexual dysfunction” (priority 2001, published 2006).

What was measured:
[1] = molecular target: T1, human dopamine D3 receptor (Homo sapiens, UniProt P35462, G9S); assay: cell-based
[2] = molecular target: T1, human dopamine D3 receptor; details: for Functional selectivity (D3 over D2): Table 5

## CCCN1CCOC(c2cc(O)cc(O)c2)C1 (racemic) [Example 15a + 15b (racemate)]
[1]
  EC50: 89 nM
[2]
  Functional selectivity (D3 over D2): >112-fold

## CCCN1CCOC(c2ccc(F)c(O)c2)C1 (racemic) [Example 23a + 23b (racemate)]
[1]
  EC50: ~65 nM
[2]
  Functional selectivity (D3 over D2): >76.9-fold

## CCCN1CCOC(c2cc(O)cc(O)c2)C1 (single isomer, unassigned) [Example 15a, R-5-(4-Propylmorpholin-2-yl)benzene-1,3-diol]
[1]
  EC50: 77 nM
[2]
  Functional selectivity (D3 over D2): 22.7-fold

## CCCN1CCOC(c2ccc(F)c(O)c2)C1 (single isomer, unassigned) [Example 23a, R-(+)-2-Fluoro-5-(4-propylmorpholin-2-yl)phenol]
[1]
  EC50: 65 nM
[2]
  Functional selectivity (D3 over D2): >76.9-fold

## CCCN1CCO[C@H](c2cccc(O)c2)C1.Cl [Example 8, R-(−)-3-(4-Propylmorpholin-2-yl)phenol hydrochloride]
[2]; Table 4
  D3 selectivity over D2: 681
[2]
  Functional selectivity (D3 over D2): 681-fold
[2]; same functional assay
  D3 over D2 selectivity relative to that shown by pramipexole: more than 3 times

## CCCN1CCOC(c2ccc(O)c(C(N)=O)c2)C1 (stereo not drawn) [Example 35, 2-Hydroxy-5-(4-propylmorpholin-2-yl)benzamide]
[1]
  EC50: 501 nM
[2]
  Functional selectivity (D3 over D2): ˜21.0-fold

## CCCN1CCOC(c2ccc(O)c(N)c2)C1 (stereo not drawn) [Example 37, 2-Amino-4-(4-propylmorpholin-2-yl)phenol]
[1]
  EC50: 895 nM
[2]
  Functional selectivity (D3 over D2): >111.7-fold

## CN[C@@H]1Cc2cccc3[nH]c(=O)n(c23)C1.O=C(O)/C=C\C(=O)O [PNU-95666]
[2]; Table 4
  Dopamine receptor preference: Balanced

## CCCNC1CCc2nc(N)sc2C1.Cl.Cl (stereo not drawn) [Pramipexole, 2-amino-4,5,6,7-tetrahydro-6-propylamino-benzthiazole-dihydrochloride]
[1]
  EC50: 0.56 nM

## CCCN(CCC)CCc1cccc2c1CC(=O)N2 [Ropinirole]
[2]; Table 4
  Dopamine receptor preference: Balanced

## c1ccc(N2CCN(C[C@H]3CC[C@H](Nc4ncccn4)CC3)CC2)cc1 [trans-[4-[(4-Phenylpiperazin-1-yl)methyl]cyclohexyl]-pyrimidin-2-ylamine]
[1]
  EC50: > 100 nM
[2]
  functional D2/D3 preference: D2-preferring agonist
[2]; Table 4
  Functional Potency EC50* (nM) D3LGH4 C1 (human): No effect
